{
  "source": "PubChem BioAssay (Tox21)",
  "note": "Several values for one entry are separate records, joined by “and”; a condition that tells them apart may be missing. Equal entries are not always repeated. The shares of active, inactive and inconclusive entries below differ from those in the screen. Potencies of inconclusive entries are doubtful fits and often do not repeat. Activity calls are given as the source filed them. Calls come from the whole dose curve; as a rule, active = well fitted cell-killing curve with a large enough effect in the repeat runs; inconclusive = weak or mixed curves, or effect the other way; inactive = no such curve, though single readings can be large or run the other way.",
  "data": [
    {"assay": "qHTS assay to identify small molecule antagonists of the glucocorticoid receptor (GR) signaling pathway - cell viability counter screen (AID 720693); note: nearly all actives have a fitted effect of over 55% in size; note: potency is the fitted concentration of half-maximal effect; tags give direction and shape of the fitted curve", "conditions": "GR-bla HeLa viability, CellTiter-Glo luminescence, 18 h, with 5 nM dexamethasone present; series mostly up to 58.5 µM", "values": [
      {"compound": "c1cc(N(CC2CO2)CC2CO2)ccc1OCC1CO1", "note": "(stereo not drawn)", "Potency": "inconclusive: 61.7 µM [cytotoxic] and inconclusive: 61.6 µM [cytotoxic, single point]"},
      {"compound": "Oc1ccc2c(c1)Cc1ccccc1-2", "Potency": "inactive"},
      {"compound": "Cc1ccc(O)c(-n2nc3ccccc3n2)c1", "Potency": "inconclusive: 7.76 µM [rising, partial curve, poor fit]"},
      {"compound": "NC(=Nc1ccccc1)Nc1ccccc1", "Potency": "inconclusive: 4.9 µM [rising, full curve, poor fit]"},
      {"compound": "C[C@@]12C(=O)OC(=O)[C@]1(C)C1CCC2O1", "Potency": "active: 1.29 µM"},
      {"compound": "Nc1ccccc1N", "Potency": "inconclusive: 61.6 µM [rising, single point]"},
      {"compound": "CC(C)(C)C1=CC(=O)C=C(C(C)(C)C)C1=O", "Potency": "inconclusive: 55 µM [rising, partial curve, poor fit]"},
      {"compound": "O=C(OCc1ccccc1)c1ccc(O)cc1", "Potency": "inactive"},
      {"compound": "Nc1ccc(O)c([N+](=O)[O-])c1", "Potency": "inconclusive: 1.09 µM [rising, single point]"},
      {"compound": "C=Cc1ccc(S(=O)(=O)O)cc1", "Potency": "inconclusive: 54.9 µM [cytotoxic, single point]"},
      {"compound": "CC1COc2ccccc2N1C(=O)C(Cl)Cl", "note": "(stereo not drawn)", "Potency": "inconclusive: 48.9 µM [cytotoxic, partial curve]"},
      {"compound": "NC(=O)c1nc(-c2cccc(-c3cc(F)ccc3OCC(F)(F)C(F)(F)F)c2)n[nH]1", "Potency": "inconclusive: 54.9 µM [cytotoxic, single point]"},
      {"compound": "NC(N)=NN=C(/C=C/c1ccc([N+](=O)[O-])o1)/C=C/c1ccc([N+](=O)[O-])o1", "Potency": "active: 5.35 µM"}
    ]}
  ]
}
